Test results as given in paper PMC6919601, “Identification of Plasmodium dipeptidyl aminopeptidase allosteric inhibitors by high throughput screening” (PLoS ONE, 2019).
The whole screen tested about 110,000 compounds, of which about 230 (0.21%) showed an effect of 50% or more. The list shows a part of the results.

What follows are compounds tested against DPAP1 (Plasmodium falciparum, UniProt Q8IIJ9) (assay: primary screen, percent inhibition; read by cleavage of a fluorogenic dipeptide substrate; higher = more effect of the substance).
Set-up: species or system P. falciparum D10 trophozoite lysates; single well
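Note: 30 min substrate incubation versus DMSO and 10 µM JCP410 controls.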

DPAP1, sequence (Q8IIJ9 whole entry, looked up): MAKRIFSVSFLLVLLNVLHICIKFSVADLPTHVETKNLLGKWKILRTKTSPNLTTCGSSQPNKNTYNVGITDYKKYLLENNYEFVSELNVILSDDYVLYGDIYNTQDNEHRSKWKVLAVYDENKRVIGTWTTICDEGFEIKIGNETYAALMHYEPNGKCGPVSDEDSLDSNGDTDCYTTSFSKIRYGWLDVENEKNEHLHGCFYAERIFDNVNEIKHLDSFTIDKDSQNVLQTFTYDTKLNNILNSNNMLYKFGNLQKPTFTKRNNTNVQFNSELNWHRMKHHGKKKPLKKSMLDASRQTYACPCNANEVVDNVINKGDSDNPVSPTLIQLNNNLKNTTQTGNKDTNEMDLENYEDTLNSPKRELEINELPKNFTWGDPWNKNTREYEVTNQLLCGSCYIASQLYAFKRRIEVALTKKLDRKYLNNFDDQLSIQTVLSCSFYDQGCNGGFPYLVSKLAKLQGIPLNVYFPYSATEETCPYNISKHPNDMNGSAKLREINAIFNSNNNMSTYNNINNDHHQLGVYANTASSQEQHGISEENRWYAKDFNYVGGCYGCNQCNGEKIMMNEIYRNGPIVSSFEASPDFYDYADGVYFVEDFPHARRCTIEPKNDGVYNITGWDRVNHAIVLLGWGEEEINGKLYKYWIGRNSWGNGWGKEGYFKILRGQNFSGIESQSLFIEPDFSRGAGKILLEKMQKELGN

Row | SMILES | % Inhibition @ 10 uM
1 | Cc1ccccc1OCC(=O)Nc1cccnc1Cl | -2.65%
2 | CCc1ccc2nc(N3CCC(C(=O)N4CCC5(CC4)OCCO5)CC3)sc2c1 | -5.51%
3 | CCCNC(=O)C1CCN(C(=O)c2cnn(-c3ccccc3)c2-n2cccc2)CC1 | 3.4%
4 | Clc1cccc(OCCCN2CCOCC2)c1 | -0.351%
5 | Sc1nc(-c2ccccc2)nc2c1C1(CCCC1)Cc1ccccc1-2 | -2.44%
6 | COc1ccc(C2CC(=O)N3CN(CCC(C)C)CSC3=C2C#N)cc1OC (stereo not drawn) | 46.8%
7 | COc1ccc(/C=C2/C(=N)N3N=C(C(C)C)SC3=NC2=O)cc1OC | -2.87%
8 | Cc1nnc(SCc2c(C)noc2C)nc1O | -7.04%
9 | O=C(NCCc1ccsc1)NCc1noc2ccccc12 | 0.0147%
10 | COc1ccc(Cl)cc1N(CC(=O)Nc1cccc(C)c1)S(C)(=O)=O | -0.185%
11 | CN1CCN(Cc2ccc(Br)o2)CC1 | -6.21%
12 | Cc1cc(=O)n2nc(N(C)CC(=O)NCc3ccc4c(c3)OCO4)sc2n1 | 3%
13 | CCc1ccc(C2=CC(c3ccc(OC)c(OC)c3OC)n3nnnc3N2)cc1 (stereo not drawn) | -3.37%
14 | Cc1cccc(NC(=O)COc2ccc(Cl)cc2Cl)c1C | -5.11%
15 | CCCN1CCN(C(=O)Cn2nc(Cc3cccnc3)c3ccccc3c2=O)CC1 | 3.59%
16 | O=c1c2c3c(sc2[nH]c(=S)n1Cc1ccccc1)CCCC3 | 3.06%
17 | O=C(NC1CCS(=O)(=O)C1)/C(NC(=O)c1ccccc1)=C(/Sc1ccc(Cl)cc1)c1ccccc1 (stereo not drawn) | -8.12%
18 | COc1ccc(S(=O)(=O)Nc2ccc(C)c(C)c2)cc1 | -0.0813%
19 | COc1ccc(OC)c(NC(=O)c2ccccc2F)c1 | 4.55%
20 | O=C1C(Sc2ccccc2)=C/C(=N/S(=O)(=O)c2cccs2)c2ccccc21 | 0.0289%
21 | CCOc1ccc(C2=Nn3c(nnc3-c3ccccc3)SC2)cc1Cl | 2.89%
22 | CCN(CC)C(=O)C1CCCN(Cc2ccc(OC)cc2)C1 (stereo not drawn) | -0.127%
23 | Cc1sc2nc(C)n(N)c(=O)c2c1C | -4.02%
24 | Nc1sc2c(c1C(=O)Nc1ccc(Br)cc1)CCCC2 | 22.8%
25 | CCc1ccccc1NS(=O)(=O)c1ccc(Cl)cc1 | -8.76%
26 | CCOc1ccc2nc(NC(=O)COc3ccc(Br)cc3)sc2c1 | 0.0265%

Row | SMILES | % Inhibition @ 10 uM
27 | CCN(C(=O)CCC(=O)N(CC)c1ccccc1)c1ccccc1 | -7.84%
28 | Cc1cc(-c2ccc(S(=O)(=O)Nc3cccc(C)n3)cc2)on1 | -5.92%
29 | CCN1CCN(C(=O)c2cc3c(Cl)nc4ccc(C)cc4c3s2)CC1 | -7.13%
30 | O=S(=O)(c1ccc(Cl)cc1)N1CCN(C2CCC(c3ccccc3)CC2)CC1 (stereo not drawn) | -11.3%
31 | COc1ccccc1CNC1Cc2ccccc2C1 | -0.0908%
32 | COC(=O)c1cc(-c2ccc(Cl)cc2)[nH]n1 | -4.84%
33 | Clc1ccc(-n2ncc3c(NCCCn4ccnc4)ncnc32)cc1 | -1.1%
34 | Clc1ccccc1OCCn1c(C2CCCO2)nc2ccccc21 (stereo not drawn) | -1.22%
35 | O=c1ccn(Cc2ccccc2)c(=O)n1Cc1ccccc1 | -3.09%
36 | CC1=C(C(=O)Nc2cccnc2)C(c2cccnc2)C2=C(O)CC(C)(C)CC2=N1 (stereo not drawn) | -6.18%
37 | Cc1cc(Br)c2c(c1)C(c1c(C)n(C)n(-c3ccccc3)c1=O)(c1c(C)n(C)n(-c3ccccc3)c1=O)C(=O)N2 | 3.74%
38 | Cc1ccc(C2C3=C(Nc4ncnn42)c2ccccc2OC3c2cccs2)cc1 (stereo not drawn) | -3.37%
39 | CN1CCN(C(=O)c2ccccc2)C(c2ccccc2)C1 (stereo not drawn) | -9.28%
40 | COC(=O)c1cc2sc(Cl)cc2n1CC(=O)N(C)C1CCCCC1 | -12.5%
41 | CNC(=O)C(=O)NCCc1c[nH]c2ccccc12 | 4.84%
42 | COc1cc2c(cc1OC)C(c1ccccn1)N(C(C)=O)CC2 (stereo not drawn) | 4.57%
43 | COCCCNC(=O)c1ccc(CSc2nc3ccncc3n2Cc2ccc(OC)cc2)cc1 | 4.53%
44 | Cc1cc(C)nc(N2C3CCC2CC(O)(c2ccccc2)C3)n1 (stereo not drawn) | 3.66%
45 | CS(=O)(=O)N1CCCC(C(=O)NCCC2=CCCCC2)C1 (stereo not drawn) | 3.79%
46 | Cc1ccc(/C=C(\C#N)C(N)=O)c(C)c1 | 0.968%
47 | CC1CCN(C(=S)NC2CCCCC2)CC1 | -8.05%
48 | COc1ccc(C(CC(=O)NCc2ccccc2)NS(=O)(=O)c2ccc(F)cc2)cc1 (stereo not drawn) | -0.406%
49 | Oc1c(Cc2ccccc2)cnc2ccccc12 | 3.32%
50 | CCCCOc1ccc(C2=N/C(=C\OCC)C(=O)O2)cc1 | 13.1%
51 | CC(C)(C)c1ccc(C(=O)Nc2ccccc2C(F)(F)F)cc1 | -4.08%
52 | O=C(Nc1cc(Cl)ccc1Cl)C1CCC(N2C(=O)C3C4C=CC(C5CC45)C3C2=O)CC1 (stereo not drawn) | -4.91%

Row | SMILES | % Inhibition @ 10 uM
53 | CC1=NOC(=O)/C1=C\c1ccc(-c2ccc(Cl)c(C(=O)O)c2)o1 | 1.91%
54 | COc1ccc(/C=C2\C(=O)N(c3cccc(Br)c3)N=C2C)cc1OC | 3.98%
55 | COc1ccc(/C=N/n2cnnc2SC)cc1OC | -1.69%
56 | CC(=O)Nc1ccc(NC(=O)c2sc3cc(Cl)ccc3c2Cl)cc1 | 2.36%
57 | CCCCN(CC)C(=O)CSc1nc2nnc(C)c-2c(N)n1-c1ccc(Br)cc1 | 1.2%
58 | COc1ccc(CN2CCN(Cc3ccc(OC)c(OC)c3)CC2)cc1 | -17.7%
59 | COCCCNC(=O)CN1C(=O)C(c2ccccc2)Oc2cccnc21 (stereo not drawn) | 0.436%
60 | CCCCCNC(=O)CSc1nc2ccccc2[nH]1 | -3.78%
61 | COCCNC(=O)c1c(C)c(-c2ccc(C)cc2)nc2ccccc12 | -1.42%
62 | NC(=O)C1CCCN(Cc2ccccc2F)C1 (stereo not drawn) | -0.446%
63 | O=C(/C=C/c1ccccc1F)c1ccc(Cl)cc1 | -1.03%
64 | Clc1ccc(CCNC2CCN(Cc3ccccc3)CC2)cc1 | -2.18%
65 | CC(=O)c1c(NC(C)C)cc(C)oc1=O | -0.969%
66 | CS(=O)(=O)C1=NSC2=NC(=O)/C(=C\c3cn(Cc4ccccc4F)c4ccccc34)C(=N)N21 | 0.163%
67 | O=C(NC1CCN(Cc2ccccc2)CC1)c1nnc(Cc2c(F)cccc2Cl)o1 | 2.5%
68 | COCCCNC(=O)C1CCN(C(=O)c2oc3cc4sc(N(C)C)nc4cc3c2C)CC1 | -3.08%
69 | CCOC(=O)/C=C(\C)N1N=C2c3ccc(OC)cc3CCC2C1c1ccc(F)cc1 (stereo not drawn) | -1.77%
70 | COc1cc(CNCc2c(C(=O)O)c(C)n(Cc3ccccc3C)c2C)cc(OC)c1OC | -3.67%
71 | c1ccc(N2CCN(Cc3ccc4ccccc4c3)CC2)cc1 | 0.847%
72 | COc1nc(NC(C)C)nc(NC(C)C)n1 | -4.91%
73 | NC(=O)c1sc2nc(-c3ccc4c(c3)OCCO4)cc(C(F)(F)F)c2c1N | 33.5%
74 | COc1cc(C(=O)N(CCCN(C)C)c2nc3ccc(F)cc3s2)cc(OC)c1OC | -1.07%
75 | COc1cccc(C2C3=C(O)CC(C)(C)CC3=NC(C)=C2C(=O)Nc2cccc(C)n2)c1OC (stereo not drawn) | 2.26%
76 | Cn1ncc(Br)c1C(=O)NC12CC3CC(CC(C3)C1)C2 | 3.56%
77 | CCS(=O)(=O)N1CCC2(CC1)OC(=O)C(C)=C2C(=O)NCCCc1ccccc1 | -2.31%
78 | CCN(CC)S(=O)(=O)c1ccc(C(C)=O)cc1 | 3.71%

Row | SMILES | % Inhibition @ 10 uM
79 | COc1ccc2[nH]c(C)c(CCNCc3ccc4ccccc4n3)c2c1 | -2.5%
80 | CC(C)(C)c1csc(NC(=O)COc2ccccc2Cl)n1 | 4.12%
81 | COc1cccc(-c2[nH]nc3c2C(c2ccc(Br)cc2)C(C#N)=C(N)O3)c1 (stereo not drawn) | 0.726%
82 | C/C(=N\[C@@H](CC1CCCCC1)C(=O)NC1(C#N)CC1)NS(=O)(=O)c1ccccc1 | -1.7%
83 | COc1ccc(/C=C2\N=C(c3ccc(C)cc3)OC2=O)c(OC)c1 | 1.47%
84 | Cc1nc2c(c(C)c1CCC(=O)NCCCN1CCCC1=O)c(=O)n(C)c(=O)n2C | -1.3%
85 | O=C(NCc1ccccc1)N[C@@H](Cc1ccc2ccccc2c1)C(=O)N[C@@H](CCc1ccccc1)C(=O)CO | -0.778%
86 | COc1ccc(C)cc1-n1nc2ccccc2n1 | -4.68%
87 | COc1ccc(CN(C)CCN(C)C)c2ccccc12 | 1.54%
88 | COc1ccccc1C(=O)Nc1nn(C)c2nc(C)cc(C)c12 | 11.9%
89 | CCOC(=O)C1=C(CN2CCCCC2)NC(=O)NC1c1cc(C)ccc1C (stereo not drawn) | 1.72%
90 | COc1cccc(-c2cc(C(=O)NC(C)(C)C)c3ccccc3n2)c1 | -2.82%
91 | CC(C)C[C@H](NC(=O)NC(C)c1cccc2ccccc12)C(=O)NCC#N (stereo partly drawn) | 1.71%
92 | CSc1nc(-c2ccc(F)cc2)c(C)cc1C#N | 1.03%
93 | COc1ccc(C(=O)Nc2ccccc2C(=O)Nc2ccccc2)cc1 | 0.755%
94 | CCOc1ccc(NC(=O)C2=C(C)NC(=O)NC2c2ccccc2Br)cc1 (stereo not drawn) | -6.47%
95 | O=C(NCC1OCCc2ccccc21)C1OCCc2ccccc21 (stereo not drawn) | -0.45%
96 | CCCOc1ccc(C2C(C#N)=C(N)Oc3[nH]nc(C(C)(C)C)c32)cc1OCC (stereo not drawn) | 0.746%
97 | CCOc1ccc(CC(=O)C2C(=O)CC(C)(C)CC2=O)cc1OCC | 2.7%
98 | CCCSc1nc(O)c(C(C)CC)c(O)n1 (stereo not drawn) | 0.0792%
99 | CC(=O)c1ccc(NC(=O)COc2ccc(Cl)c(C)c2)cc1 | 4.96%
100 | CCC(CC)NCCc1ccc(OC)c(OC)c1 | 8.16%
101 | Cc1ccc(N2CCN(C(=O)c3ccccc3NC(=O)CCC(=O)O)CC2)cc1 | 3.04%
102 | O=C(Nc1ccccc1C(=O)N1CCCCC1CCO)c1ccc(Cl)cc1Cl (stereo not drawn) | 11.9%
